Results: US20230235040A1

Molecular target: mixture of hu-IL-36α, hu-IL-36β and hu-IL-36γ
Assay: cell-based or functional assay

B1: mAb2.10/mAb6_2.7 multispecific common light chain antibody (IgG, knobs-into-holes, N297G) (bispecific antibody)
heavy 1: ELQLQESGPGLVKPSETLSLTCTVSGGSISDSSYYWGWIRQPPGKGLEWIGSIYYTGETYYAPSLKSRVTISVDTSKNQFSLKLSSVTAADTAVYYCARVRYGVGVPRHFDPWGQGTLVTVSSASTKGPSVFPLAPSSKSTSGGTAALGCLVKDYFPEPVTVSWNSGALTSGVHTFPAVLQSSGLYSLSSVVTVPSSSLGTQTYICNVNHKPSNTKVDKKV[left out - human IgG1 Fc with changes]
heavy 2: ELQLQESGPGLVKPSETLSLTCTVSGGSITASNTYWGWIRQPPGKGLEWIGSIDYTGSTYYNPSLKSRVTISVDTSKNQFSLKLSSVTAADTAVYYCATGKYYETYLGFDVWGQGTLVTVSS[left out - human IgG1 constant region with N297G T366W (EU numbers)]
light: ESVLTQPPSVSGAPGQRVTISCTGSSSNIGAHYDVHWYQQLPGTAPKLLIYGNDNRPSGVPDRFSGSKSGTSASLAITGLQAEDEADYYCQSYDYSLSGYVFGGGTKLTVLGQPKAAPSVTLFPPSSEELQANKATLVCLISDFYPGAVTVAWKADSSPVKAGVETTTPSKQSNNKYAASSYLSLTPEQWKSHKSYSCQVTHEGSTVEKTVAPTECS
Which IC50, IL-8 secretion by HEKa cells stimulated by a cytokine mixture does the source give for B1 here?
Its IC50, IL-8 secretion by HEKa cells stimulated by a cytokine mixture is 1.16 nM.
